Measured values taken from publication PMC4336329 (PLoS ONE, 2015).
Out of some 310,000 compounds screened, about 14,000 (4.5%) showed an effect of 50% or more. Effects have a minus sign here. The list shows a part of the results.

Molecular target: human ether-à-go-go-related gene (hERG) potassium channel (human, UniProt Q12809)
Experiment: primary screen, population patch clamp on CHO cells stably expressing hERG
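Further: peak tail current of the secondary pulse compared with the same well before compound.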

human ether-à-go-go-related gene (hERG) potassium channel, sequence (Q12809 whole entry, looked up): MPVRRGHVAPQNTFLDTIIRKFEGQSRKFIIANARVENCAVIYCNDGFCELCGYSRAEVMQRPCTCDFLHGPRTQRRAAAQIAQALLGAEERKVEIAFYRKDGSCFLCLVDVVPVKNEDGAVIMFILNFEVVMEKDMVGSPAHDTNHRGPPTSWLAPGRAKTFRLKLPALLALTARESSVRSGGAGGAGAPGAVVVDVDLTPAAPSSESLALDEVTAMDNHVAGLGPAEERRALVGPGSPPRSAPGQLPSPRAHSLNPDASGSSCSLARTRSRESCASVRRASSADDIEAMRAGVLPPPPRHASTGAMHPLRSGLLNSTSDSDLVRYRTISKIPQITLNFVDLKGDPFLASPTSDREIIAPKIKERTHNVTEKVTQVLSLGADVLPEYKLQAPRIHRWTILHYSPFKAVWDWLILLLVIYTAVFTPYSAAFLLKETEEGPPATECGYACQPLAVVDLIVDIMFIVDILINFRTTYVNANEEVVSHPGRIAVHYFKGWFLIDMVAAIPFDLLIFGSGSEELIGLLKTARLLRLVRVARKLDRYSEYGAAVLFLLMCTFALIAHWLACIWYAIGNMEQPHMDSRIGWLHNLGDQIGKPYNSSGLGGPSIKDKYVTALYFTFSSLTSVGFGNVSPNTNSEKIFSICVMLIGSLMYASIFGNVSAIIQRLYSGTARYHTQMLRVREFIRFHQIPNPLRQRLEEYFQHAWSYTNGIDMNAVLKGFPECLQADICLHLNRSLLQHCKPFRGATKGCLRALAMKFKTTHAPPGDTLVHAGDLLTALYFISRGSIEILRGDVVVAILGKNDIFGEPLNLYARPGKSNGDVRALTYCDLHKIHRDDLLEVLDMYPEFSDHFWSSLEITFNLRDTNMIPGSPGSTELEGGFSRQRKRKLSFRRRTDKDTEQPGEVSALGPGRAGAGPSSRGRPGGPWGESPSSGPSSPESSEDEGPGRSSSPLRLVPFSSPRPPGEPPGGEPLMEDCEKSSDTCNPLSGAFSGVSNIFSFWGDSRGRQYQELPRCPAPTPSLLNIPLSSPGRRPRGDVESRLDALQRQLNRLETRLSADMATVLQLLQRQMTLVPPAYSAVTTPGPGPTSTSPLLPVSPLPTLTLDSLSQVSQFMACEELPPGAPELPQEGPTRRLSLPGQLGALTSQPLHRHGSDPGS

Row | Structure (SMILES) | hERG current change (%, negative = inhibition) at 10uM [%]
1 | Cc1cc(C(F)F)n2ncc(C(=O)N3CCC(C(N)=O)CC3)c2n1 | 16.1
2 | Cc1ccc2c(cnn2C(=O)CCC(=O)NCc2cccc(Br)c2)c1 | 9.82
3 | Cc1ccc(S(=O)(=O)c2ncccc2N)cc1 | 12.4
4 | CC(=O)N1CCN(CC(=O)O)CC1 | 3.69
5 | COc1ccc(/C(CC2OC(=O)c3ccccc32)=N\NC(N)=O)cc1 (centres unmarked) | 0.79
6 | CCOC(=O)N1CCN(S(=O)(=O)N2CCCC(C(=O)NCc3cccc(OC)c3)C2)CC1 (centres unmarked) | -19.5
7 | COC(=O)c1sccc1-c1ccc(C(=O)Nc2ccccc2)o1 | -23.1
8 | COC(=O)c1cccnc1NC(=S)NC1CCCCC1 | 15.2
9 | COc1ccc(C(=O)NC2CCCc3c2cnn3-c2cccc(C)c2C)c(OC)n1 (centres unmarked) | -29.9
10 | Cc1cc(C)n2nnnc2c1C#N | 16.1
11 | CCOC(=O)c1cccc(NC(=O)c2ccco2)c1 | -28.6
12 | COc1cccc(CNC(=O)CSc2nnc3c(n2)[nH]c2ccc(OC)cc23)c1 | 3.05
13 | COc1ccccc1NC(=O)CSc1nc(O)cc(=O)n1C | 9.27
14 | NS(=O)(=O)c1ccc(CCNC(=S)Nc2ccccc2)cc1 | -10.9
15 | O=[N+]([O-])c1ccc(C2[C@H]3C(c4ccccc4)=NC4(CCCCC4)N23)cc1 (some centres unmarked) | 30.5
16 | Cc1ccccc1/C=N/Nc1ccc(Cl)nn1 | 24.1
17 | CCN(CC)CCN1C(=O)c2oc3ccccc3c(=O)c2C1c1ccccc1 (centres unmarked) | -18.9
18 | Fc1ccccc1-c1nnc2c3ccccc3nc(N3CCOCC3)n12 | -9.92
19 | CCOC(=O)C(=CNc1cc(C)ccc1[N+](=O)[O-])C(=O)OCC | -12.5
20 | O=C(Cn1c(=O)[nH]c2ccccc2c1=O)Nc1ccc2c(c1)OCO2 | 14.5
21 | COc1ccc(S(=O)(=O)N(C)CC(=O)N2CCN(c3ccc(F)cc3)CC2)cc1OC | -44
22 | CCCCc1nc(Cl)c(CO)n1Cc1ccc(-c2ccccc2-c2nn[n-]n2)cc1.[K+] | -0.856
23 | CCOc1ccc(-c2nc[nH]c2[N+](=O)[O-])cc1 | 27

Row | Structure (SMILES) | hERG current change (%, negative = inhibition) at 10uM [%]
24 | CCOCCCNc1nc2c(C)cccn2c(=O)c1/C=C1\SC(=S)N(CC(C)C)C1=O | 24.4
25 | CCOc1cc(C=O)cc(Br)c1OCC(N)=O | 2.71
26 | O=C(c1ccco1)N1CCN(CC(O)COc2ccc(Br)cc2)CC1 (centres unmarked) | -72.6
27 | COc1ccc(Nc2nc3cc(C)ccc3cc2C#N)cc1 | -32.4
28 | COc1ccccc1OCCC(=O)OCC(=O)NCc1ccccc1 | -0.671
29 | C=CCOc1cccc(C(=O)N2CCC(CCC(=O)NC3CC3)CC2)c1 | -9.51
30 | CCOC(=O)c1c(NC(=O)CSc2nc3ccccc3o2)sc(C)c1C | 19.4
31 | CCOc1ccc(CCNC(=O)c2ccc3nc(CC)c(CC)nc3c2)cc1 | 15.3
32 | CCOC(=O)CSc1nnc(Cn2nnc(-c3ccccc3)n2)n1CC | -10.4
33 | COc1ccccc1-c1sc2ccccc2c1-c1ccc2c(c1)OCCO2 | 6.94
34 | CCOC(=O)C(CCOc1cccc(CC)c1)C(=O)OCC | 6.01
35 | COc1ccccc1CNC(=O)COC(=O)[C@H](Cc1c[nH]c2ccccc12)NC(=O)c1cccs1 | -6.21
36 | COc1ccc(NC(=O)CSc2nc3ccc(OC)cc3[nH]2)cc1 | 0.906
37 | CC(C)c1ccc(CNC(=O)C(=O)Nc2nccs2)cc1 | 34.9
38 | Cc1ccc(S(=O)(=O)CCc2nc3ccccc3[nH]2)cc1C | -2.03
39 | O=[N+]([O-])c1ccc(COc2ccc(CNc3ccccc3)cc2)cc1 | 4.33
40 | CC(NC(=O)C(=O)NCCN1CCN(C(=O)c2ccc([N+](=O)[O-])cc2)CC1)c1ccccc1 (centres unmarked) | -75.1
41 | COc1ccc(NCc2nnc(SCC(=O)NNC(=O)c3ccc(C)cc3)n2C)cc1 | 11.3
42 | COn1cnnc1-c1ccccc1 | 1.1
43 | Cc1ccc2c(CN3CCN(Cc4ccccc4)CC3)cc(=O)oc2c1 | -78.9
44 | O=C(Nc1ncccc1O)c1cccc(S(=O)(=O)N2CCCc3ccccc32)c1 | -10.3
45 | COc1ccc(N2CCN(S(=O)(=O)c3cccc(C(F)(F)F)c3)CC2)cc1 | -1.33
46 | Cc1ccc(/C=N/Nc2nc(N3CCOCC3)nc(N3CCOCC3)n2)o1 | 4.82

Row | Structure (SMILES) | hERG current change (%, negative = inhibition) at 10uM [%]
47 | CCN1CCN(C(=O)CN(C)S(=O)(=O)c2cc(C)ccc2OC)CC1 | 22.4
48 | CCCCC(=O)Nc1ccc(C(=O)Nc2ccc(S(=O)(=O)N3CCCC3)cc2)cc1 | 10.2
49 | C/C=N/NC(=O)CCCC(=O)N/N=C/C | 21.9
50 | O=C(NC1CCCCC1)C1CCC(=O)N(C2CC2)C1 (centres unmarked) | 25.9
51 | CCOC(=O)c1ccc2c(c1)N(Cc1ccccc1C)C(=O)c1ccccc1S2=O (centres unmarked) | -23.8
52 | COc1ccccc1N1CCN(Cc2ccc(Br)cc2)CC1.O=C(O)C(=O)O | -70.3
53 | Cc1nn(CCCC(=O)NCCCN2CCN(C)CC2)c(=O)c2c1sc1ccccc12 | 17.5
54 | COCc1ccc(-c2c(-c3cc(OC)cc(OC)c3)oc(=O)c3cc(OC)c(OC)cc23)cc1 | 3.27
55 | O=C(/C=C/c1ccc2c(c1)OCCO2)N1CCN(c2ccc(F)cc2)CC1 | 9.55
56 | CN1CCc2c(sc3c2C(=O)NC(/C=C\c2ccccc2)N3)C1 (centres unmarked) | -58.6
57 | CCn1ccnc1CNC(=O)c1ccc(OC2CCN(C(=O)COC)CC2)cc1 | 15.2
58 | Cc1ccc(NC2CCCN(C(=O)C3CCCC3)C2)cc1C (centres unmarked) | 11.3
59 | O=c1c2cn[nH]c2nc(SCc2ccccc2F)n1-c1ccc(Br)cc1 | -24.2
60 | COc1ccccc1CNC(=O)CCNS(=O)(=O)c1ccc2[nH]c(=O)oc2c1 | 11.3
61 | CCCCOC(=O)Nc1nnc(Cc2ccc(Cl)cc2)s1 | 15.5
62 | CCN(CC(=O)Nc1sc2c(c1C#N)CCCC2)Cc1nc2ccccc2c(=O)[nH]1 | -8.12
63 | Fc1ccc2c(c1)C(c1ccc(N3CCOCC3)cc1)=NNC(c1cccs1)=N2 | -1.96
64 | Nc1nc(SCc2nc3scc(-c4cccs4)c3c(=O)[nH]2)n[nH]1 | 18.9
65 | O=C(Nc1nc(-c2ccco2)c(-c2ccco2)s1)c1cnccn1 | 3.8
66 | CCCCn1nnnc1SCC(=O)NCc1ccco1 | 10.6
67 | COc1ccc(NC(=O)c2coc3ccccc23)cc1OC | 6.21
68 | CN(c1ccccc1)S(=O)(=O)c1ccc(C(=O)OCC(=O)NCc2ccco2)cc1 | -12.2
69 | C#Cc1ccc([C@@H]2C=C(C(=O)OCC=C)O[C@H](OCc3ccc(CO)cc3)C2)cc1 | -7.01

Row | Structure (SMILES) | hERG current change (%, negative = inhibition) at 10uM [%]
70 | Nc1[nH]c(N=NC(=O)c2ccccc2)c2ccccc12 | -3.09
71 | CCCOC(=O)c1ccc(NC(=O)C2C3C=CC(O3)C2C(=O)O)cc1 (centres unmarked) | 15.9
72 | Cc1ccc(S(=O)(=O)N2CCCC2)cc1C(=O)O | 16.2
73 | Cc1c(NC(=S)/C=C2\N(C)c3ccccc3C2(C)C)c(=O)n(-c2ccccc2)n1C | 0.171
74 | CCN(Cc1ccccc1)S(=O)(=O)c1c(C)n(C)c(=O)n(C)c1=O | -18.8
75 | C=CCN(c1ccc(C(=O)Nc2ccc3c(c2)n(C)c(=O)n3C)cc1)S(C)(=O)=O | 15.7
76 | CC(C)(C)C(=O)N1CCN(c2ncnc3scc(-c4ccccc4)c23)CC1 | -30
77 | O=C(NCc1ccccc1)c1ccco1 | 2.34
78 | COc1ccc(CN2CCNC(=O)C2CC(=O)N(C)CCC2CCOCC2)c(OC)c1 (centres unmarked) | 8
79 | O=C(Nc1cccnc1)c1ccc(COCC(F)(F)F)cc1 | 7.03
80 | C=CCn1c(N)c(C(=O)N2CCN(C)CC2)sc1=S | -22.1
81 | C#CCNC(=O)C1=C[C@@H](c2coc3ccccc3c2=O)C[C@@H](OCCCCO)O1 | 1.71
82 | CCC1CCCCN1CCCNC(=O)CNC(=O)Cn1ccc2ccccc2c1=O (centres unmarked) | 12.3
83 | CNC(=O)[C@H]1O[C@@H](n2cnc3c(NCc4cccc(I)c4)nc(Cl)nc32)[C@H](O)[C@@H]1O | 1.58
84 | COc1cccc2c1cc1c(=O)n(CC(=O)N3CCCCCC3)nc(C)n12 | -2.48
85 | CCOc1cc2[nH]c(=S)n(Cc3ccc(C)o3)c(=O)c2cc1OCC | -4.12
86 | O=C(CSc1nnnn1-c1ccc2c(c1)CCC2)NCc1cccs1 | -3.81
87 | Cn1ncc2c(O/N=C(\N)c3ccc(C(F)(F)F)cc3)ncnc21 | -6.44
88 | CCOc1ccc(S(=O)(=O)N2CCc3ccccc3C2)cc1 | 9.5
89 | O=C(c1cnc2c(c1)COc1ccc(Cl)cc1-2)c1ccccc1O | -16.7
